# Reference: publication PMC4336329 (PLoS ONE, 2015)
# The whole screen tested about 310,000 compounds, of which about 2,200 (0.71%) showed an effect of 50% or more. Effects have a minus sign here. This is one part of the list.
# Target: human ether-à-go-go-related gene (hERG) potassium channel (human, UniProt Q12809)
# Experiment: primary screen, population patch clamp on CHO cells stably expressing hERG
# human ether-à-go-go-related gene (hERG) potassium channel, sequence (Q12809 whole entry, looked up): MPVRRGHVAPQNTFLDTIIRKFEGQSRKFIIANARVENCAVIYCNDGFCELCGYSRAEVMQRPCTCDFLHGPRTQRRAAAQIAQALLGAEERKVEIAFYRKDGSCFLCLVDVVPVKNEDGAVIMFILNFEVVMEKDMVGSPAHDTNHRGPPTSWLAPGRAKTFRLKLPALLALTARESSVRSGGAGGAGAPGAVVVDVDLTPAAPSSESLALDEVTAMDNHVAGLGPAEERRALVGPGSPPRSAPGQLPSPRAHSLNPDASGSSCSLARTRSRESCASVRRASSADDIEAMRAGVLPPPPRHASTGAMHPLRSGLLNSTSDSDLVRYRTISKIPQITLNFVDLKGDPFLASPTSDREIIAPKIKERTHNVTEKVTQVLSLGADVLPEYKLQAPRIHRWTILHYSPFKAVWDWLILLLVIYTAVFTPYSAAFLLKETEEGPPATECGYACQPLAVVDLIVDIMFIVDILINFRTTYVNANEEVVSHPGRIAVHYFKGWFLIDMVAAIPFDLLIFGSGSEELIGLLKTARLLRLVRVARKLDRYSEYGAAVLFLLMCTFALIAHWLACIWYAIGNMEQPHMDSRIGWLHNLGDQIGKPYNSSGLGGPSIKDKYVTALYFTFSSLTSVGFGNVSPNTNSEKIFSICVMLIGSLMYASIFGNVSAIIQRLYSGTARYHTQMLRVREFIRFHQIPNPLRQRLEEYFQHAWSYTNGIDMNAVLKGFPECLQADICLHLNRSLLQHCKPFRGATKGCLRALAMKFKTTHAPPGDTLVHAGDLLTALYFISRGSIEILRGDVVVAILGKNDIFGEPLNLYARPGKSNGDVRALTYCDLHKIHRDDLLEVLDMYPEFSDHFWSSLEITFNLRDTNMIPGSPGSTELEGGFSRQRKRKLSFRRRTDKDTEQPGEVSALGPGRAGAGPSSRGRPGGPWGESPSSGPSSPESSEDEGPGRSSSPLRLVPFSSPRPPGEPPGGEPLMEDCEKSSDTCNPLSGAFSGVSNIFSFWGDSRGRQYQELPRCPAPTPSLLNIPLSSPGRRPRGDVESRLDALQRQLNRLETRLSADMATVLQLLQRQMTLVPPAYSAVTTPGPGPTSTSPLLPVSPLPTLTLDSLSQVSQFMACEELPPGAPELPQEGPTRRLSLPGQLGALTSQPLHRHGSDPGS
row,Structure (SMILES),"hERG current change (%, negative = inhibition) at 1uM [%]"
1,COc1cc(N)ccc1C(=O)O,-1.48
2,Nc1nc(SCC(=O)N2CCCC2)[nH]c(=O)c1-c1ccccc1,14
3,CCN1CC(CN(C)Cc2nc(-c3ccc(C(F)(F)F)cc3)no2)CC1=O (stereo not shown),0.248
4,Cn1c(SCc2ccc(C(=O)Nc3nccs3)cc2)nnc1-c1ccccc1,2.95
5,CCOc1ccc(NC(=O)c2nn(C)c(C(=O)Nc3ccc(OCC)cc3)c2[N+](=O)[O-])cc1,12.3
6,CCCC(C(=O)NCc1ccco1)N(C(=O)CNS(=O)(=O)c1ccccc1)c1ccc(OC)cc1 (stereo not shown),0.987
7,Cc1ccccc1OCCn1cc(/C(N)=N/O)c2ccccc21,14
8,CCCn1c(N)c(N(CCOC)C(=O)CSc2cc(C)c3cccc(C)c3n2)c(=O)[nH]c1=O,5.36
9,CCOC(=O)c1ccc2c(c1)nc(COc1ccc3ccccc3c1)n2CC,4.84
10,CN(CCOc1ccccc1)C(=O)C1CCC(=O)N(CCN2CCOCC2)C1 (stereo not shown),11.4
11,COC(=O)c1ccc(NC(=O)CSc2nncn2-c2ccccn2)cc1,19.8
12,CCCC[C@@H]1CCCO[C@@](C(=O)NCc2ccccn2)(C(F)(F)F)C1,4.82
13,O=c1oc(-c2cccs2)nc2c1cnn2-c1ccccc1,-11.5
14,COc1ccc(-c2noc(COc3ccc4ccccc4c3Br)n2)cc1OC,2.31
15,CCCCN1C(=O)C(=O)N(CC(=O)Nc2ccc(C(N)=O)cc2)C1=O,-0.837
16,CNS(=O)(=O)c1cccc(C(=O)NCC2(N3CCCCC3)CCCCC2)c1,8.21
17,COc1ccc(NCCC#N)cc1,7.5
18,CCc1ccc(CN2CCC(CO)(CC3CCCCO3)CC2)o1 (stereo not shown),4.03
19,CC(C)(C)C(=O)N1CCN(c2ccc([N+](=O)[O-])c(NCC3CCCO3)c2)CC1 (stereo not shown),4.57
20,Cc1nn(-c2ccccc2)c(Cl)c1/C=N/Nc1nc2ccccc2[nH]1,10.1
21,NC(CC(=O)NC(c1ccccc1)(c1ccccc1)c1ccccc1)C(=O)O (stereo not shown),10.1
22,O=C(O)c1cccc(-n2cccc2/C=C2\NC(=O)N(Cc3ccc(F)cc3)C2=O)c1,9.78

row,Structure (SMILES),"hERG current change (%, negative = inhibition) at 1uM [%]"
1,CCN(CC)CC(O)Cn1c(-c2ccccc2Cl)nc2ccccc21 (stereo not shown),1.07
2,Cc1cccc(C)c1C(=O)N[C@@H](Cc1ccccc1)C(=O)O,15.1
3,Cc1sc2nc(SCC(=O)N(CCO)CCO)n(C3CCCCC3)c(=O)c2c1C,4.67
4,COc1ccccc1Nc1c2c(nc3ccc(N)cc13)CCCC2,-48
5,Cc1cccc(-n2nc([N+](=O)[O-])c(=NCc3cccnc3)n2O)c1,4.03
6,COc1ccccc1NC(=O)c1ccc(NC(=O)COC(=O)C2(C)CC2(Cl)Cl)cc1 (stereo not shown),5.18
7,CC(c1ccccc1)n1c(CO)nc2ccccc21 (stereo not shown),17.9
8,Cc1ccc(CN2CC(C(=O)Nc3ccc(S(=O)(=O)N4CCCCC4)cc3)CC2=O)cc1 (stereo not shown),4.79
9,Cc1c(Br)c([N+](=O)[O-])nn1CC(=O)N1CCN(Cc2ccccc2)CC1,-19.2
10,C[C@H](NC(=O)OC(C)(C)C)C(=O)N/N=C/C1=Cc2ccccc2OC1,9.34
11,COc1cccc(CN(C)C(=O)c2ccccc2Sc2ccccc2C#N)c1,14.7
12,COc1cccc(CC(=O)N[C@@H](CCSC)c2nc3ccccc3[nH]2)c1,-2.82
13,CCn1c2ccccc2c2c3ncc4cccn4c3ccc21,16.6
14,COc1nc(NCCO)nc(Nc2ccccc2F)n1,14.7
15,COC(C[C@@H]1O[C@H]1[C@H](O)[C@@H](C)OCc1ccccc1)OC,-1.45
16,CCN(CC)c1nc(N2CCN(CCO)CC2)nc2ccccc12.Cl,5.07
17,CSc1ccc(CNC(=O)C(C)n2nc(C)c3c(C)n(-c4ccccc4)nc3c2=O)cc1 (stereo not shown),-8.46
18,Cc1nc2nc(N)nc(OCc3ccccc3)c2nc1C,10.6
19,CC(=O)c1cccc(NS(=O)(=O)c2ccc3c(c2)oc(=O)n3C)c1,5.98
20,CC(C)(C)N(Cc1ccccc1)C(=O)COC(=O)CCc1c[nH]c2ccccc12,10.4
21,Cc1ccc(CN(C(=O)Cc2cccs2)C(C(=O)NC2CCCC2)c2ccncc2)cc1 (stereo not shown),-5.88
22,COc1ccc(C(=O)NC(=O)COC(=O)C2COc3ccccc3O2)cc1 (stereo not shown),4.15

row,Structure (SMILES),"hERG current change (%, negative = inhibition) at 1uM [%]"
1,CCC(C)(c1ccc(C(=O)OC)s1)c1ccc(C(=O)OC)s1,5.28
2,CN(C(=O)CCN1C(=O)/C(=C/c2ccccc2F)SC1=S)C1CCS(=O)(=O)C1 (stereo not shown),5.42
3,Nc1c(Cl)ncnc1N/N=C/c1cccnc1,9.7
4,Clc1cccc(CSc2ccc(-c3ccco3)nn2)c1,12.3
5,NS(=O)(=O)c1ccc2nc(-c3ccccc3)c(-c3ccccc3)nc2c1,-1.42
6,CC(C)NC(=O)CC1(C(=O)NCc2ccc(Cl)cc2)CCCC1,19.8
7,CCS(=O)(=O)N1CCN(C(=O)c2cccc(OC)c2)CC1,4.65
8,COc1ccc(NC(=O)CSc2nncn2N)c(OC)c1,15.7
9,CCC(=O)NNc1nc2c(F)cc(F)cc2s1,11.4
10,Cc1nc2ccccc2nc(C)c1=NOCc1ccc(Cl)cc1Cl,0.014
11,CC(C)N(O)C(=O)NC(C)(C)C,7.03
12,COc1ccc(OC)c(S(=O)(=O)Nc2cc(Cl)cc(Cl)c2)c1,-4.43
13,C=CCn1c(=O)c2c(C)c(C)sc2n2c(Nc3ccccc3)nnc12,14.9
14,COc1cccc(CN2CC(C(=O)NCc3ccc(C)c(F)c3)CCC2=O)c1 (stereo not shown),-0.169
15,Nc1ccc(NS(=O)(=O)c2ccccc2)cc1,6.65
16,O=c1[nH]c(=O)n(Cc2ccc(F)cc2)c(O)c1C=NCc1cccnc1,10.8
17,CCCOc1ccc(/C(O)=C2/C(=O)C(=O)N(CCCn3ccnc3)C2c2ccco2)cc1 (stereo not shown),8.29
18,CCOc1cc(C(=O)Nc2ccc(F)cc2)cc(Br)c1OC,14.8
19,O=C(Nc1ccc(F)c(F)c1)C1CCCN(S(=O)(=O)c2cccc3nonc23)C1 (stereo not shown),10.9
20,Cc1ccc(S(=O)(=O)N2CCCC2C(=O)OCc2nc3sc(C)c(C)c3c(=O)[nH]2)cc1 (stereo not shown),22.3
21,CCCc1cc(=O)oc2c(C)c(OCC(=O)NCCCN3CCOCC3)ccc12,-2.86
22,O=C(NCc1nnnn1-c1ccc(F)c(F)c1)C(=O)c1c[nH]c2ccccc12,14.5

row,Structure (SMILES),"hERG current change (%, negative = inhibition) at 1uM [%]"
1,C=CCNC(=S)N/N=C/c1ccc(C(F)(F)F)cc1,9.95
2,O=C(NCCCN1CCCC1=O)c1cccc(Oc2ccccc2)c1,16.4
3,COc1ccc(CNC(=O)C2(CC3CC(c4ccccc4)=NO3)CCN(C(=O)C3(C)CC3)CC2)cc1 (stereo not shown),-37.1
4,Cc1nn(CC(=O)NCCc2ccccc2)c(=O)c2cccn12,11.4
5,O=C(Cn1ccnc1)c1ccc(Cl)cc1,11.7
6,Cc1ccc(C(=O)O/N=C2\CCS(=O)(=O)c3sccc32)cc1,13.8
7,Cc1nn(C)cc1-c1n[nH]c(=S)n1-c1ccc(Cl)cc1,12.4
8,Cc1ccc(C(NC(=O)/C=C\c2ccc3c(c2)OCO3)C(=O)Nc2ccc3c(c2)OCO3)cc1 (stereo not shown),4.58
9,O=C(C1CCN(S(=O)(=O)c2cccc3nonc23)CC1)N1CCCCC1,14.4
10,COc1ccc(C(=O)C2CCCN(C(=O)c3cccc(Cn4cccn4)c3)C2)cc1F (stereo not shown),-10.1
11,O=C(Nc1cccc(-c2cn3c(n2)SCC3)c1)c1ccc2c(c1)OCO2,8.4
12,Cc1ccc(NC(=O)Cc2cccs2)cc1Cl,15.5
13,N=C1C(c2ccccc2)=C(O)CN1c1ccccc1N1CCOCC1,7.03
14,COc1ccccc1NC(=O)C1CCCN(c2cnccn2)C1 (stereo not shown),14.1
15,CCOC(=O)C1=C(CSc2nc3c(cc2C#N)CCC3)OC(N)=C(C#N)C1c1ccccc1.CN(C)C=O (stereo not shown),13.6
16,CN(C)S(=O)(=O)c1cccc(NC(=O)COC(=O)/C=C/c2cccs2)c1,3.98
17,CC1(C)CC(=O)C([N+](=O)[O-])=C(NCCCC(=O)O)C1.O,15.8
18,CCOc1cc(/C=C(\C#N)c2[nH]nc(N)c2C#N)ccc1O,-1.26
19,CCOc1ccc(CN(C)C(C)C(=O)Nc2ccc([N+](=O)[O-])cc2Cl)cc1OC (stereo not shown),-4.68
20,CCOc1ccccc1C(=O)NC1CC2CCCC(C1)N2Cc1ccccc1 (stereo not shown),-32.9
21,Cc1cccc(C)c1NC(=O)Cn1nc(-c2ccccc2)nc1-c1ccccc1,14.3
22,Cc1c(C(=O)O)cnc2cc(-c3ccc(Cl)cc3)nn12,16.9
